Experimental data from the supplement of paper PMC11148083.
≈ marks a conversion by molar mass, not a printed value. Where “and” joins values, the source holds several entries; their conditions need not be identical. Identical values can stand only once. MIC of E. coli strains with or without a β-lactamase plasmid, in LB (broth microdilution, 22 h, 37 °C, OD600 below 0.2; fosfomycin by agar dilution); pBAD18 genes induced with arabinose where stated. Higher = less susceptible. No active / inactive call. Values are arithmetic means of replicate MICs, so they fall between dilution steps. Colistin is a mixture; one drawing stands for it.

What was measured:
Experiment in all cases: Broth microdilution in LB (fosfomycin: agar dilution), 22 h at 37 °C; MIC = lowest dose with OD600 below 0.2.
[1] = tested on: Escherichia coli ECOR27
[2] = tested on: Escherichia coli ECOR42
[3] = tested on: Escherichia coli ECOR49
[4] = tested on: Escherichia coli ECOR47
[5] = tested on: Escherichia coli ECOR35
[6] = tested on: Escherichia coli ECOR01
[7] = tested on: Escherichia coli ECOR61
[8] = tested on: Escherichia coli ECOR53
[9] = tested on: Escherichia coli J53
[10] = tested on: Escherichia coli BW25113 (arabinose: 0.5% w/v)
[11] = tested on: Escherichia coli ECOR70

CC[C@H]1OC(=O)[C@H](C)[C@@H](O[C@H]2C[C@@](C)(OC)[C@@H](O)[C@H](C)O2)[C@H](C)[C@@H](O[C@@H]2O[C@H](C)C[C@H](N(C)C)[C@H]2O)[C@](C)(O)C[C@@H](C)CN(C)[C@H](C)[C@@H](O)[C@]1(C)O [azithromycin]
Settings	MIC
[1], plasmid: none	12 µg/mL (≈ 16 µM)
[1], plasmid: pUN4 empty	12 µg/mL (≈ 16 µM)
[1], plasmid: pUN4 with blaCTX-M-15	4.33 µg/mL (≈ 5.79 µM)
[1], plasmid: pUN4 with blaOXA-48	6.67 µg/mL (≈ 8.9 µM)
[2], plasmid: none	16 µg/mL (≈ 21.4 µM)
[2], plasmid: pUN4 empty	16 µg/mL (≈ 21.4 µM)
[2], plasmid: pUN4 with blaCTX-M-15	8 µg/mL (≈ 10.7 µM)
[2], plasmid: pUN4 with blaOXA-48	7 µg/mL (≈ 9.35 µM)
[3], plasmid: none	16 µg/mL (≈ 21.4 µM)
[3], plasmid: pUN4 empty	16 µg/mL (≈ 21.4 µM)
[3], plasmid: pUN4 with blaCTX-M-15	9.33 µg/mL (≈ 12.5 µM)
[3], plasmid: pUN4 with blaOXA-48	10.7 µg/mL (≈ 14.2 µM)
[4], plasmid: none	16 µg/mL (≈ 21.4 µM)
[4], plasmid: pUN4 empty	16 µg/mL (≈ 21.4 µM)
[4], plasmid: pUN4 with blaCTX-M-15	9.33 µg/mL (≈ 12.5 µM)
[4], plasmid: pUN4 with blaOXA-48	13.3 µg/mL (≈ 17.8 µM)
[5], plasmid: none	21.3 µg/mL (≈ 28.5 µM)
[5], plasmid: pUN4 empty	18.7 µg/mL (≈ 24.9 µM)
[5], plasmid: pUN4 with blaCTX-M-15	12 µg/mL (≈ 16 µM)
[5], plasmid: pUN4 with blaOXA-48	10.7 µg/mL (≈ 14.2 µM)
[6], plasmid: none	16 µg/mL (≈ 21.4 µM)
[6], plasmid: pUN4 empty	16 µg/mL (≈ 21.4 µM)
[6], plasmid: pUN4 with blaCTX-M-15	13.3 µg/mL (≈ 17.8 µM)
[6], plasmid: pUN4 with blaOXA-48	12 µg/mL (≈ 16 µM)
[7], plasmid: none	10.7 µg/mL (≈ 14.2 µM)
[7], plasmid: pUN4 empty	10.7 µg/mL (≈ 14.2 µM)
[7], plasmid: pUN4 with blaCTX-M-15	12 µg/mL (≈ 16 µM)
[7], plasmid: pUN4 with blaOXA-48	10 µg/mL (≈ 13.4 µM)
[8], plasmid: none	13.3 µg/mL (≈ 17.8 µM)
[8], plasmid: pUN4 empty	16 µg/mL (≈ 21.4 µM)
[8], plasmid: pUN4 with blaCTX-M-15	8 µg/mL (≈ 10.7 µM)
[8], plasmid: pUN4 with blaOXA-48	8 µg/mL (≈ 10.7 µM)
[9], plasmid: none	18.7 µg/mL and 8.53 µg/mL
[9], plasmid: pOXA-48 DEL (blaOXA-48 not expressed)	8.53 µg/mL (≈ 11.4 µM)
[9], plasmid: pOXA-48 PV-B (blaOXA-48)	0.75 µg/mL (≈ 1 µM)
[9], plasmid: pOXA-48 PV-D (blaOXA-48)	1.83 µg/mL (≈ 2.45 µM)
[9], plasmid: pOXA-48 PV-E (blaOXA-48)	1.33 µg/mL (≈ 1.78 µM)
[9], plasmid: pOXA-48 PV-K (blaOXA-48)	1.17 µg/mL (≈ 1.56 µM)
[9], plasmid: pOXA-48 PV-O (blaOXA-48)	3.17 µg/mL (≈ 4.23 µM)
[9], plasmid: pOXA-48 TET (blaOXA-48 replaced by tetC)	12 µg/mL (≈ 16 µM)
[9], plasmid: pOXA-48 WT (blaOXA-48)	1.33 µg/mL (≈ 1.78 µM)
[9], plasmid: pUN4 empty	18.7 µg/mL and 10.7 µg/mL
[9], plasmid: pUN4 with blaCTX-M-15	10 µg/mL (≈ 13.4 µM)
[9], plasmid: pUN4 with blaOXA-48	7.33 µg/mL and 5.78 µg/mL
[9], plasmid: pUN4 with the DEL allele of blaOXA-48	8.89 µg/mL (≈ 11.9 µM)
[10], plasmid: none	12 µg/mL (≈ 16 µM)
[10], plasmid: pBAD18 empty	8 µg/mL (≈ 10.7 µM)
[10], plasmid: pBAD18 with blaCTX-M-14	4 µg/mL (≈ 5.34 µM)
[10], plasmid: pBAD18 with blaCTX-M-15	4 µg/mL (≈ 5.34 µM)
[10], plasmid: pBAD18 with blaKPC-2	4 µg/mL (≈ 5.34 µM)
[10], plasmid: pBAD18 with blaNDM-1	3.67 µg/mL (≈ 4.9 µM)
[10], plasmid: pBAD18 with blaOXA-1	4 µg/mL (≈ 5.34 µM)
[10], plasmid: pBAD18 with blaOXA-48	4 µg/mL (≈ 5.34 µM)
[10], plasmid: pBAD18 with blaTEM-1	4 µg/mL (≈ 5.34 µM)
[11], plasmid: none	16 µg/mL (≈ 21.4 µM)
[11], plasmid: pUN4 empty	16 µg/mL (≈ 21.4 µM)
[11], plasmid: pUN4 with blaCTX-M-15	12 µg/mL (≈ 16 µM)
[11], plasmid: pUN4 with blaOXA-48	16 µg/mL (≈ 21.4 µM)

C[C@H]1[C@H](NC(=O)/C(=N\OC(C)(C)C(=O)O)c2csc(N)n2)C(=O)N1S(=O)(=O)O [aztreonam]
[10]
Settings	MIC [µg/mL]
plasmid: none	0.146 (≈ 0.335 µM)
plasmid: pBAD18 empty	0.146 (≈ 0.335 µM)
plasmid: pBAD18 with blaCTX-M-14	64 (≈ 147 µM)
plasmid: pBAD18 with blaCTX-M-15	32.1 (≈ 73.7 µM)
plasmid: pBAD18 with blaKPC-2	58.7 (≈ 135 µM)
plasmid: pBAD18 with blaNDM-1	0.146 (≈ 0.335 µM)
plasmid: pBAD18 with blaOXA-1	0.208 (≈ 0.478 µM)
plasmid: pBAD18 with blaOXA-48	0.188 (≈ 0.431 µM)
plasmid: pBAD18 with blaTEM-1	0.583 (≈ 1.34 µM)

CO/N=C(\C(=O)N[C@@H]1C(=O)N2C(C(=O)O)=C(COC(C)=O)CS[C@H]12)c1csc(N)n1 [cefotaxime]
Settings	MIC [µg/mL]
[1], plasmid: none	0.12 (≈ 0.263 µM)
[1], plasmid: pUN4 empty	0.146 (≈ 0.32 µM)
[1], plasmid: pUN4 with blaCTX-M-15	64 (≈ 141 µM)
[1], plasmid: pUN4 with blaOXA-48	2 (≈ 4.39 µM)
[2], plasmid: none	0.113 (≈ 0.249 µM)
[2], plasmid: pUN4 empty	0.125 (≈ 0.274 µM)
[2], plasmid: pUN4 with blaCTX-M-15	64 (≈ 141 µM)
[2], plasmid: pUN4 with blaOXA-48	0.5 (≈ 1.1 µM)
[3], plasmid: none	0.146 (≈ 0.32 µM)
[3], plasmid: pUN4 empty	0.135 (≈ 0.296 µM)
[3], plasmid: pUN4 with blaCTX-M-15	64 (≈ 141 µM)
[3], plasmid: pUN4 with blaOXA-48	0.5 (≈ 1.1 µM)
[4], plasmid: none	0.163 (≈ 0.359 µM)
[4], plasmid: pUN4 empty	0.146 (≈ 0.32 µM)
[4], plasmid: pUN4 with blaCTX-M-15	64 (≈ 141 µM)
[4], plasmid: pUN4 with blaOXA-48	2 (≈ 4.39 µM)
[5], plasmid: none	0.103 (≈ 0.227 µM)
[5], plasmid: pUN4 empty	0.0925 (≈ 0.203 µM)
[5], plasmid: pUN4 with blaCTX-M-15	64 (≈ 141 µM)
[5], plasmid: pUN4 with blaOXA-48	0.517 (≈ 1.13 µM)
[6], plasmid: none	0.12 (≈ 0.263 µM)
[6], plasmid: pUN4 empty	0.103 (≈ 0.227 µM)
[6], plasmid: pUN4 with blaCTX-M-15	64 (≈ 141 µM)
[6], plasmid: pUN4 with blaOXA-48	1.27 (≈ 2.8 µM)
[7], plasmid: none	0.0708 (≈ 0.156 µM)
[7], plasmid: pUN4 empty	0.0983 (≈ 0.216 µM)
[7], plasmid: pUN4 with blaCTX-M-15	64 (≈ 141 µM)
[7], plasmid: pUN4 with blaOXA-48	0.0925 (≈ 0.203 µM)
[8], plasmid: none	0.12 (≈ 0.263 µM)
[8], plasmid: pUN4 empty	0.146 (≈ 0.32 µM)
[8], plasmid: pUN4 with blaCTX-M-15	64 (≈ 141 µM)
[8], plasmid: pUN4 with blaOXA-48	2 (≈ 4.39 µM)
[9], plasmid: none	0.163 (≈ 0.359 µM)
[9], plasmid: pUN4 empty	0.163 (≈ 0.359 µM)
[9], plasmid: pUN4 with blaCTX-M-15	2 (≈ 4.39 µM)
[9], plasmid: pUN4 with blaOXA-48	2 (≈ 4.39 µM)
[10], plasmid: none	0.125 (≈ 0.274 µM)
[10], plasmid: pBAD18 empty	0.125 (≈ 0.274 µM)
[10], plasmid: pBAD18 with blaCTX-M-14	512 (≈ 1120 µM)
[10], plasmid: pBAD18 with blaCTX-M-15	448 (≈ 984 µM)
[10], plasmid: pBAD18 with blaKPC-2	11 (≈ 24.2 µM)
[10], plasmid: pBAD18 with blaNDM-1	299 (≈ 656 µM)
[10], plasmid: pBAD18 with blaOXA-1	13.3 (≈ 29.3 µM)
[10], plasmid: pBAD18 with blaOXA-48	1.5 (≈ 3.29 µM)
[10], plasmid: pBAD18 with blaTEM-1	0.146 (≈ 0.32 µM)
[11], plasmid: none	0.125 (≈ 0.274 µM)
[11], plasmid: pUN4 empty	0.167 (≈ 0.366 µM)
[11], plasmid: pUN4 with blaCTX-M-15	64 (≈ 141 µM)
[11], plasmid: pUN4 with blaOXA-48	0.5 (≈ 1.1 µM)

O=C(N[C@H](CO)[C@H](O)c1ccc([N+](=O)[O-])cc1)C(Cl)Cl [chloramphenicol]
[10]
Settings	MIC [µg/mL]
plasmid: none	5.33 (≈ 16.5 µM)
plasmid: pBAD18 empty	4 (≈ 12.4 µM)
plasmid: pBAD18 with blaCTX-M-14	4.67 (≈ 14.4 µM)
plasmid: pBAD18 with blaCTX-M-15	4 (≈ 12.4 µM)
plasmid: pBAD18 with blaKPC-2	4 (≈ 12.4 µM)
plasmid: pBAD18 with blaNDM-1	4.67 (≈ 14.4 µM)
plasmid: pBAD18 with blaOXA-1	4 (≈ 12.4 µM)
plasmid: pBAD18 with blaOXA-48	4 (≈ 12.4 µM)
plasmid: pBAD18 with blaTEM-1	4.67 (≈ 14.4 µM)

O=C(O)c1cn(C2CC2)c2cc(N3CCNCC3)c(F)cc2c1=O [ciprofloxacin]
[10]
Settings	MIC [µg/mL]
plasmid: none	0.0225 (≈ 0.0679 µM)
plasmid: pBAD18 empty	0.02 (≈ 0.0604 µM)
plasmid: pBAD18 with blaCTX-M-14	0.0225 (≈ 0.0679 µM)
plasmid: pBAD18 with blaCTX-M-15	0.025 (≈ 0.0754 µM)
plasmid: pBAD18 with blaKPC-2	0.0225 (≈ 0.0679 µM)
plasmid: pBAD18 with blaNDM-1	0.015 (≈ 0.0453 µM)
plasmid: pBAD18 with blaOXA-1	0.0225 (≈ 0.0679 µM)
plasmid: pBAD18 with blaOXA-48	0.02 (≈ 0.0604 µM)
plasmid: pBAD18 with blaTEM-1	0.02 (≈ 0.0604 µM)
